# Measured values reported in the supplement of paper PMC10185492.
# This is one part of the list. These are enrichments in a pooled selection; single values are uncertain.
# System: SARS-CoV-2 3CLpro (nsp5)
# Assay: substrate phage enrichment score (protease-eluted vs HEPES control, +1 offset) (ratio); higher = better cleaved substrate
# Details: selection round: 3; protease elution time: 0.5 h
# Description: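 Random heptapeptide substrate phage display (M13 pIII fusion, heptapeptide between an N-terminal biotinylated AviTag GLNDIFEAQKIEWHE and pIII; phages immobilised on streptavidin) eluted by cleavage with 50 nM protease in 20 mM HEPES at 37 °C. Selected phages were NGS sequenced, and the enrichment score is (reads in protease sample + 1)/(reads in HEPES blank-selection control + 1).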
row,Substance,substrate phage enrichment score
1,RQSSRLS,2.73
2,TKNKEAG,2.45
3,NASAEMS,> 24
4,IITITGP,1.08
5,VYMESRQ,> 22
6,HSAAHHH,1.56
7,PLRCYLY,> 23
8,RATAHHH,2.1
9,IEATGVI,> 25
10,ISAAHHH,0.981
11,TQYFQGG,1
12,GRSANAP,0.25
13,SCAAHHH,3
14,AVQVSHP,1.8
15,SKTILLQ,> 60
16,RGRTILQ,> 222
17,PLLQGMI,6.67
18,VRTGTKL,> 26
19,WAPTTPL,> 34
20,SNTRSPK,3.6
21,TTNNWKA,2.27
22,SQQNAPL,0.679
23,ARMPLMM,> 23
24,NLPVRLQ,> 95

row,Substance,substrate phage enrichment score
1,EQQAQTT,1.75
2,LMRSTLQ,> 32
3,GQYFQGG,1.2
4,DQSTNLR,9.75
5,VCPQVKN,2.92
6,TRQRPAP,4.86
7,KSTAAHH,1.25
8,EGPSAMV,5.4
9,SCDEQHT,> 39
10,RNQTPET,> 40
11,SVSPESH,18.5
12,TKKCLLQ,> 22
13,ELVEDPV,1.15
14,QSPVRLQ,11.7
15,AAQLQGV,> 26
16,CRVSQPG,> 21
17,PYFQGGS,1.41
18,SAAIGAK,3.17
19,MPSWSPS,> 24
20,PALLNSG,17.8
21,KGTLRPV,3.21
22,SDFQGGS,1.05
23,WPIFQVT,2.14
24,QSGDATD,10.2

row,Substance,substrate phage enrichment score
1,KSQKFDV,3.57
2,VRPHIIN,1.28
3,EEADPER,0.0606
4,KSLAQCQ,6.29
5,EPGTAQH,3.12
6,SASTSNR,> 29
7,DVAAHHH,0.853
8,HGNEVSD,2.14
9,NFHPKLG,2.14
10,SAAAHPH,0.689
11,WSAAHHH,1.33
12,NNYSVQG,2.11
13,NDNPKNR,0.258
14,RSPSLLQ,> 65
15,PCTVTMQ,> 29
16,SHREEYQ,> 69
17,RKEVQMQ,43
18,IPIHCDR,4.09
19,FSCLPGP,14.5
20,IETEDVT,> 78
21,KTKSECT,2.79
22,RNAAAHH,2
23,LKAAHHH,1.28
24,VSGAAPC,> 25

row,Substance,substrate phage enrichment score
1,RLPFQGG,9.67
2,SSWPPEG,> 24
3,SAAAPQH,1.87
4,WQHHDGK,> 36
5,DRSRTES,1.25
6,PDFQGGS,0.939
7,SGSAILT,> 34
8,SCEVFRH,2.14
9,NDNWMPV,0.769
10,ARCSQTF,> 21
11,RNTCVLQ,> 68
12,KTTLQSN,244
13,ARGELDA,13.5
14,ERNGYRC,4.75
15,LVRPHII,1.2
16,KAHLKDS,1.88
17,VVNKTAD,1.44
18,NSAATLS,1.67
19,HYPLMKP,> 23
20,LPRTHHS,0.976
21,CNFQGGS,1.5
22,QCPRPGQ,16.7
23,LTGVSDR,3.6
24,DESNDMI,1.5

row,Substance,substrate phage enrichment score
1,RAYQLNA,23.5
2,VPTTTLQ,> 37
3,CSAHNMR,10.7
4,HHHGAAE,1.08
5,VGSAAAH,0.533
6,SHLSVLH,13.5
7,LGGSAAA,1.39
8,VTESAPW,3.93
9,AGAAHHH,0.533
10,RSLDLTA,6.55
11,SRLTSSG,16.7
12,KRCTKLQ,> 21
13,GPTDFDR,0.0606
14,PAHTDIR,7.67
15,GSAAAHH,0.827
16,CGKLGVY,2.54
17,GIPAVSQ,8.67
18,RNESLNP,> 30
19,CKHGSAR,3.83
20,EDCGSRS,4.8
21,EIPVPST,> 24
22,REAEDRQ,2.25
23,SWTCHLQ,> 64
24,SMGSSGR,8.43

row,Substance,substrate phage enrichment score
1,EKYGSPL,14.5
2,TESLRRR,4.6
3,RNEACTT,> 22
4,RQNEILR,> 33
5,SSNAAAH,2.67
6,VGAAHHH,0.643
7,FNEPGTP,23
8,EPWPAKM,0.8
9,HASEWVP,0.571
10,RKSAHHH,0.412
11,GRPHIII,1.44
12,WKEQSKK,11
13,RPEPTKQ,3.17
14,ENPRNAD,11.2
15,CNAAAHH,1.21
16,PSRRRNG,1.3
17,SNLPALQ,32.5
18,YQASGAR,> 21
19,DMGPCIR,2.3
20,LKNAALQ,39.3
21,FKYPGDR,> 28
22,STHQKKC,> 26
23,TNKPAQV,1
24,LATFRGS,4.54

row,Substance,substrate phage enrichment score
1,GSCKRQS,> 44
2,LQGIHRS,0.0625
3,CYEAGWH,> 25
4,PSKPTLH,> 77
5,SCRQKPA,> 22
6,YTSTPQE,8
7,ETCPLPA,13.5
8,LETHGGS,> 25
9,ALNFQGG,3.29
10,PDCLMCA,2.18
11,HKAAHHH,0.421
12,CSTGMVN,9.75
13,LAAAHHH,0.965
14,HGCSGLQ,> 25
15,CQSDTYG,3.68
16,GNAQSWQ,> 23
17,RQPPAAN,2.14
18,NDAAHHH,1.35
19,VKAAHHH,2.12
20,AGGQLKA,> 23
21,CEQGIWY,2.62
22,THSRLCP,1
23,RKPCLVQ,4.56
24,ERDGKAP,> 23

row,Substance,substrate phage enrichment score
1,IDAAHHH,1.19
2,HQNFERA,> 23
3,ASPTTLQ,> 28
4,SKTPVKT,5.11
5,LQGGSAA,1.31
6,CFSPLWP,4.9
7,LLLNSGR,11
8,DISALMH,10
9,AESSKAR,> 23
10,ESNMLHQ,> 23
11,RSALTRQ,> 24
12,MTAAHHH,1.54
13,SSSEIRQ,30
14,ESWGCQR,> 23
15,ENFWGPR,6
16,RRAPVLQ,> 25
17,GAMNGRS,6.33
18,HIPLTLG,> 27
19,VRQEPSE,3.4
20,SPAAEMS,0.222
21,SPGIVES,3
22,HLNFQGG,0.842
23,PVLPPAQ,4.75
24,WESKCIP,> 29

row,Substance,substrate phage enrichment score
1,RNPMSKA,2
2,VSGEPWV,0.533
3,TPAGPNN,13
4,ALYFQGG,1.5
5,SSETQES,1.38
6,TCLSHGY,3.4
7,WTRLQGN,> 23
8,CILQALG,> 41
9,NRKSNLQ,16
10,GPAAHHH,0.657
11,VLSMPVH,39.5
12,GQSMPAG,> 35
13,TSLQSGS,60
14,SVLQCRP,> 22
15,QQQPTIR,> 21
16,SHGKVRV,3
17,SSLTQGV,> 24
18,MTPHTKQ,> 24
19,PPVKNPR,2.33
20,PSSIHRE,> 21
21,YGAKNVP,> 21
22,AREKSTW,3.38
23,NKPGLTS,> 50
24,RQLMEKP,> 31

row,Substance,substrate phage enrichment score
1,ESAAHHH,0.722
2,PAPIHFR,> 23
3,CRAAAHH,2.05
4,DLSAELQ,> 30
5,LTRLQSE,87.8
6,KGSVVLH,> 23
7,GYRHGAC,3.8
8,NRHGNYW,6.33
9,HQALCPV,0.808
10,SNEAAHH,8.6
11,ESRTCCA,2.14
12,VSSSPVT,2.67
13,VSKSHRL,11
14,PRNVRLQ,> 38
15,TREESNQ,1.36
16,NRPSQLR,0.941
17,FRVVVRP,0.8
18,AQNNSHR,1.27
